Several values for one entry are separate records, joined by “and”; a condition that tells them apart may be missing. Equal entries are not always repeated. Where two headings read alike, the source gives them in different places. For some of these results: The name of at least one read-out is uncertain. For some of these results: At least one compound was matched to its structure with a doubt left. Some results were stated once for a whole list of compounds, not compound by compound.
Assays:
[1] = biological target: T1, LuxR (Aliivibrio fischeri, UniProt P35327); format: cell-based, Vibrio fischeri; conditions: V. fischeri ES114 (Δ-luxI), normalized to OHHL; for V. fischeri-LuxR Activation [%]: 200 μM ligand; for V. fischeri-LuxR Inhibition [%]: 5 μM synthetic ligand against 5 μM OHHL
T1 construct: a Δ-luxI derivative of V. fischeri ES114, in which the native lux operon behaves as the bioluminescent reporter; endogenous in cells; host or cells: V. fischeri ES114 (Δ-luxI)
Procedure: Luminescence assays. For agonism assays, an appropriate amount of AHL stock solution was added into a 96-well plate. An overnight culture of E. coli or V. fischeri was diluted 1:10 with appropriate media (LB plus 10 μg/mL tetracycline for E. coli; LBS for V. fischeri). A 200-μL portion of the diluted culture was added to each well of the plate. Plates were grown for 4-8 h with shaking (200 rpm; 30° C. for E. coli and RT for V. fischeri). Luminescence was measured using a multilabel plate reader and normalized to cell density. […] All assays were performed in triplicate. Graphpad Prism software was used to calculate IC50 and EC50 values.
Vibrio fischeri assay procedures. […] An overnight culture of V. fischeri ES114 (WT, Δ-luxI or Δ-luxR) was diluted 1:10 with LBS medium. A-200 μL portion of the diluted culture was added to each well of the plate. Plates were grown at RT with shaking (200 rpm) until the OD600=0.35-0.4 (4-6 h). Luminescence then was measured and normalized to cell density per well. […] All assays were performed in triplicate. IC50 and EC50 values were calculated using GraphPad Prism software using a sigmoidal curve fit.
(§1) V. fischeri reporter gene assay protocols. […] An overnight culture of V. fischeri ES114 (D-luxI) was diluted 1:10 with LBS medium. A 200-μL portion of the diluted culture was added to each well of the multititer plate. Plates were grown at RT with shaking (200 rpm) until the OD600=0.35-0.4 (4-6 h). Luminescence then was measured and normalized to cell density per well.
(§2) Dose response reporter gene assays. […] IC50 and EC50 values were calculated using GraphPad Prism software (v. 4.0) using a sigmoidal curve fit.
as §1, with “(Δ-luxI)” for “(D-luxI)”, “A200 μL” for “A 200-μL”, “incubated” for “grown”, “RT” for “RT with shaking (200 rpm)”
as §2

[2] = biological target: T2, QscR (Pseudomonas aeruginosa, UniProt G3XD77); format: cell-based; conditions: 5 μM AHL alone
T2 construct: expressed in transfected cells; host or cells: recombinant E. coli (pJN105Q) with β-gal promoter fusion

[3] = biological target: T3, TraR (Agrobacterium tumefaciens, UniProt P33905); format: cell-based; conditions: 10 μM synthetic ligand against 100 nM OOHL; A. tumefaciens WCF47 (pCF372); normalized to OOHL
T3 construct: These strains lack their AHL synthase (I) genes, but retain their native R genes; endogenous in cells; host or cells: A. tumefaciens WCF47 (Δ-traI) with PtraI-lacZ plasmid pCF372
Procedure: A. tumefaciens reporter gene assay protocols. […] An overnight culture of A. tumefaciens WCF47 (pCF372) was diluted to an OD600 of 0.1 in fresh AB minimal medium containing 400 μg/mL octopine and 50 μg/mL streptomycin. A 200 μL-portion of the diluted culture was added to each well of the multititer plate containing AHLs. Plates were grown at 28° C. for 18-20 h in a rotary shaking incubator (200 rpm). The cultures were then assayed for β-galactosidase activity following the Miller assay method. Briefly, 200 μL aliquots of bacteria from each of the wells were added to wells of a polystyrene 96-well plate and the OD600 of each well was recorded. […] Absorbance at 420 nm and 550 nm was measured for each well using a plate reader, and Miller units were calculated according to standard methods.
as §2
A. tumefaciens reporter gene assay protocols. […] Briefly, 200 μL aliquots of bacteria from each of the wells were added to wells of a 96-well multititer plate, and the OD600 of each well was recorded. […] Absorbances at 420 nm and 550 nm were measured for each well using a plate reader, and Miller units were calculated according to standard methods. […]

[4] = biological target: T4, LasR (Pseudomonas aeruginosa, UniProt P25084); format: cell-based; conditions: E. coli DH5α (pJN105L pSC11), normalized to OdDHL; for E. coli-LasR Activation [%]: 5 μM ligand
T4 construct: expressed in transfected cells; host or cells: E. coli DH5α (pJN105L pSC11), arabinose-induced
Procedure: E. coli LasR reporter gene assay protocols. […] An overnight culture of E. coli DH5a (pJN105L pSC11) grown at 37° C. was subculture by diluting 1/10 in fresh LB medium containing 100 μg/mL ampicillin and 15 μg/mL gentamicin and shaking at 37° C. until OD600=0.3. Arabinose (4 mg/mL) was then added to induce the LasR promoter and a 200 μL-portion of this culture was added to each well of the multititer plate containing AHLs. Plates were grown at 37° C. for 2 hours in a rotary shaking incubator (200 rpm; OD600=0.45). The cultures were then assayed for activity following the identical β-galactosidase assay protocols used in the A. tumefaciens reporter gene assays.
as §2
E. coli LasR reporter gene assay protocols. […] An overnight culture of E. coli DH5α (pJN105L pSC11) was diluted 1:10 with fresh LB medium containing 100 μg/mL ampicillin and 15 μg/mL gentamicin. This sub-culture was incubated at 37° C. until OD600=0.3 (4-6 h). Arabinose (4 mg/mL) was then added to induce the LasR promoter, and a 200 μL portion of this culture was added to each well of the multititer plate containing AHLs. Plates were incubated at 37° C. until OD600=0.45 (4-6 h). The cultures were then assayed for LasR activity following the identical β-galactosidase assay protocols used in the A. tumefaciens reporter gene assays (see above).
as §2

[5] = system: V. fischeri ES114 (Δ-luxR); assay: Luminescence assay in Δ-luxR derivative of V. fischeri ES114; format: cell-based, Vibrio fischeri
Procedure: Vibrio fischeri assay procedures. For primary agonism assays, an appropriate amount of concentrated control or PHL (11) stock solution, to give a final concentration of 200 μM, was added to wells in a 96-well multititer plate. An overnight culture of V. fischeri ES114 (WT, Δ-luxI or Δ-luxR) was diluted 1:10 with LBS medium. A-200 μL portion of the diluted culture was added to each well of the plate. Plates were grown at RT with shaking (200 rpm) until the OD600=0.35-0.4 (4-6 h). Luminescence then was measured and normalized to cell density per well. […] Similar methods were used for dose response assays, except the concentrations of controls and PHLs 11 used were between 0.02 and 2×10^5 nM. All assays were performed in triplicate. IC50 and EC50 values were calculated using GraphPad Prism software using a sigmoidal curve fit.

T2 sequence (G3XD77 entry or part of it): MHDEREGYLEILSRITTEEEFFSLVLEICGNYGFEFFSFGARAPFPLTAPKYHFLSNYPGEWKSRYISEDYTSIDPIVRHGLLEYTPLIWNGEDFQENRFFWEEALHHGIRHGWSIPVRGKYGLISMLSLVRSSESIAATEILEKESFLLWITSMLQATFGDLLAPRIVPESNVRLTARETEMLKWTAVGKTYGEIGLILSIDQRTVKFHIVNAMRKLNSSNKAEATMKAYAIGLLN
T1 sequence (P35327 whole entry): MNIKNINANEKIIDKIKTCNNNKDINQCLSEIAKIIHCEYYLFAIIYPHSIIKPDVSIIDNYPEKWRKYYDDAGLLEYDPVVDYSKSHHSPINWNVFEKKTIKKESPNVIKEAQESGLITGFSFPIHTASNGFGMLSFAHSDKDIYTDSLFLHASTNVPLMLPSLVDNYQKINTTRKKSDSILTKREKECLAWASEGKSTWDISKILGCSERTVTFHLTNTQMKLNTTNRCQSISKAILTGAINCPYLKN
T4 sequence (P25084 whole entry): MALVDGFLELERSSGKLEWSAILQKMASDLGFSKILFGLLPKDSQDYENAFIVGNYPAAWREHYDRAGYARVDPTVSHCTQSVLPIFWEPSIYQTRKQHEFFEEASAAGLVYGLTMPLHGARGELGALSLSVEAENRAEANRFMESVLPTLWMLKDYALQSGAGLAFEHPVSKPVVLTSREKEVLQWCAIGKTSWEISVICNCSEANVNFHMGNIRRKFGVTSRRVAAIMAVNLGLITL
T3 sequence (P33905 whole entry): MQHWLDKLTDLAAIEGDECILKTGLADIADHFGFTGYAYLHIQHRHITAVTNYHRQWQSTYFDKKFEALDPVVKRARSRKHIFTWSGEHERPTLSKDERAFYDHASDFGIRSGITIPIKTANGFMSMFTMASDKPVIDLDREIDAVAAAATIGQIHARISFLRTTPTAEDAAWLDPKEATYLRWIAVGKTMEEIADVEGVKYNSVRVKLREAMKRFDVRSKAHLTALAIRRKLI

Question: Which “V. fischeri-LuxR Activation [%]” value [1] does the source give for 3-bromo PHL [11b] here?
Answer: at least 60%

Question: With 3-chloro PHL [11h] as the compound, how does the “V. fischeri-LuxR Activation [%]” value [1] read?
Answer: at least 60%

Question: Which QscR activation [2] does the source give for `CCCCCCCC(=O)N[C@H]1CCOC1=O` [A3, C8 AHL] here?
Answer: ≥ 50%

Question: With `CCCCCCCCCC(=O)NC1CCOC1=O` (stereo not shown) [A4, C10 AHL] as the compound, how does the QscR activation [2] read?
Answer: ≥ 50%

Question: `O=C(Cc1ccc(-c2ccccc2)cc1)N[C@H]1CCOC1=O` [C18, 4-phenyl PHL] was tested. Which “V. fischeri-LuxR Inhibition [%]” value [1] did it give?
Answer: ~70% and 79%

Question: What about the “A. tumefaciens-TraR Inhibition [%]” value [3] of the same compound?
Answer: 67%

Question: `CCCCCC(=O)CC(=O)N[C@H]1CCOC1=O` [compound 1, N-(3-oxo-octanoyl)-L-homoserine lactone, reference compound] was tested. Which “E. coli-LasR Activation [%]” value [4] did it give?
Answer: 19%

Question: What about the “E. coli-LasR Activation [%]” value ([4]; listed as OOHL) of the same compound?
Answer: ≤ 44%

Question: And the “E. coli-LasR Activation [%]” value ([4]; listed as OOHL (1))?
Answer: ≤ 44%

Question: What about the “V. fischeri-LuxR Activation [%]” value [1] of the same compound?
Answer: 24%

Question: And the “V. fischeri-LuxR Activation [%]” value ([1]; listed as OOHL (1))?
Answer: ~25%

Question: What about the QscR activation [2] of the same compound?
Answer: ≥ 50%

Question: `CCCC(=O)CC(=O)N[C@H]1CCOC1=O` [compound 3, N-(3-oxo-hexanoyl)-L-homoserine lactone, reference compound] was tested. Which “luminescence / activity in Δ-luxR derivative of V. fischeri ES114” value [5] did it give?
Answer: Neither 11n nor OHHL induced any detectable luminescence

Question: What does the source list for `O=C(Cc1ccc(Br)cc1)N[C@H]1CCOC1=O` [compound 8, N-(4-bromo-phenylacetanoyl)-L-homoserine lactone, reference compound]?
Answer: E. coli-LasR Inhibition [%] ([4]; 5 μM synthetic ligand against 7.5 nM OdDHL): 28%; V. fischeri-LuxR Inhibition [%] [1]: 79%; A. tumefaciens-TraR Inhibition [%] [3]: 88%

Reference: patent US7910622B2, “Modulation of bacterial quorum sensing with synthetic ligands” (Wisconsin Alumni Research Foundation, priority 2007, dated 2011)
